Test results taken from publication PMC4336329 (PLoS ONE, 2015).
Hit rate of the full screen: of about 310,000 compounds, about 2,200 (0.71%) showed an effect of 50% or more. Effects have a minus sign here. The list shows a part of the results.

What follows are molecules tested against human ether-à-go-go-related gene (hERG) potassium channel (human, UniProt Q12809) (assay: primary screen, population patch clamp on CHO cells stably expressing hERG).
human ether-à-go-go-related gene (hERG) potassium channel, sequence (Q12809 whole entry, looked up): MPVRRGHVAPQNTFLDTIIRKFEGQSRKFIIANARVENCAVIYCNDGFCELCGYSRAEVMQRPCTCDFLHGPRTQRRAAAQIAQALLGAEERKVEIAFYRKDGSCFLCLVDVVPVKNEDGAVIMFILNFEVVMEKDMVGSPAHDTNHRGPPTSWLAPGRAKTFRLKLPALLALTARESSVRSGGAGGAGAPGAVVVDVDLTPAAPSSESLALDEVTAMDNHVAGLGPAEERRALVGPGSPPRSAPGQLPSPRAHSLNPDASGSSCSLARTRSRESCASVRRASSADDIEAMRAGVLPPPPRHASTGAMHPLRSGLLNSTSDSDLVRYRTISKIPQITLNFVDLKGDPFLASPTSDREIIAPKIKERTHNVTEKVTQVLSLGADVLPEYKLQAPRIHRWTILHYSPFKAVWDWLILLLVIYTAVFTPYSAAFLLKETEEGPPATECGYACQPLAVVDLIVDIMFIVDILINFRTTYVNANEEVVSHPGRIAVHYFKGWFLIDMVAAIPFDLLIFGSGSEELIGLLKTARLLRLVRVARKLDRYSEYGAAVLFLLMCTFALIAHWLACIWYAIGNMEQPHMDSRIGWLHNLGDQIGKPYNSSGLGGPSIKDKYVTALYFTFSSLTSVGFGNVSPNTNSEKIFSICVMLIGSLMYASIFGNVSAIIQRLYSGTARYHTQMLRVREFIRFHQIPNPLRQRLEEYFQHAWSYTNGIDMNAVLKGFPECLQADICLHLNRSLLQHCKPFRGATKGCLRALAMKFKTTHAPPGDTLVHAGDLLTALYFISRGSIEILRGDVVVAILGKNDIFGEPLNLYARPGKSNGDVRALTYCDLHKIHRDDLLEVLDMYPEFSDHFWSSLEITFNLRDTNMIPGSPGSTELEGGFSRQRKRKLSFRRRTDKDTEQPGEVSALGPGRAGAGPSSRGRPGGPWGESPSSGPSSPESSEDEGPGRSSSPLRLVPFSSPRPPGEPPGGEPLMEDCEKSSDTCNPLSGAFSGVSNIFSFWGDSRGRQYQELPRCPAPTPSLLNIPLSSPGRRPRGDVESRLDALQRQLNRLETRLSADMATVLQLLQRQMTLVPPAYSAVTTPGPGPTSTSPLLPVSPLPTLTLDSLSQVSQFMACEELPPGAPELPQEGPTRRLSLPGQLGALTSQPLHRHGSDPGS

Compound | hERG current change (%, negative = inhibition) at 1uM [%]
CSc1nccn1C(=O)c1ccccc1[N+](=O)[O-] | 7.11
CCOC(=O)N1CCN(C(=O)CNS(=O)(=O)c2c(C)cc(C)cc2C)CC1 | 14.2
CCOc1cc(-c2nc3n(c(=O)c2C#N)CCS3)ccc1O | 12.5
N/C(=N\OS(=O)(=O)c1ccc(Br)cc1)c1ccncc1 | 4.43
CCC(=O)N1CCN=C1SCc1ccccc1 | 13
COc1ccc2c(c1)C(C)=CC(C)(C)N2S(=O)(=O)c1ccc(Br)cc1 | 15.4
Cc1noc(C)c1S(=O)(=O)N(CC(=O)NCc1ccccc1)c1ccc(C(C)C)cc1 | 16
Cc1cccc(OCC(=O)NNC(=O)CSc2ncc(C#N)c(N)n2)c1 | 8.43
O=C(C1=C[C@@H](C2CC2)C[C@@H](OCCCCO)O1)N1CCN(Cc2ccccc2)CC1 | 9
CCOC(=O)CSc1nc2sc3c(c2c(=O)n1-c1ccccc1)CCN(C)C3 | 24.6
CC(NS(C)(=O)=O)C(c1cccs1)N1CCN(c2ccccc2F)CC1 (centres unmarked) | 12.7
Br.CCOc1ccc(N=c2scc(-c3ccccc3)n2CCO)cc1 | 9.03
COc1cc(SC)ccc1C(=O)Nc1ncc(C)s1 | 1.4
COc1cccc(/C=N/Nc2ncnc(N)c2[N+](=O)[O-])c1OC | 5.07
O=C(CCc1nnc(CCCCc2ccccc2)o1)NCCCc1cccnc1 | 12.1
O=C(CCc1nc(-c2ccccc2)no1)NCc1cccnc1 | -4.92
COc1cc(C)ccc1NC(=O)Cc1csc(NC(=O)Nc2ccccc2OC)n1 | 7.89
Cc1ccc(N=C2NC(=O)/C(=C/c3cccn3C)S2)cc1C | 10.3
O=C(CN1CCN(Cc2ccc(Cl)cc2)CC1)N/N=C/c1cccc(F)c1 | -48.8
Cn1c(CNc2ccc(Cl)cc2)nnc1SCC#N | 1.61
O=c1[nH]c(COc2ccc(Cl)cc2Cl)nc2ccccc12 | 16.3
COCCN(C(=O)CNC(=O)c1ccco1)C(C(=O)NC1CCCCC1)c1cccc(OC)c1 (centres unmarked) | 4.56

Compound | hERG current change (%, negative = inhibition) at 1uM [%]
O=C(Nc1ccc(Cl)cc1)Nc1ccc(Cl)c(Cl)c1 | 1.25
COc1cccc(CNC(=O)COC(=O)CCCNC(=O)c2ccc(Cl)cc2)c1 | 14.8
CCOC(=O)C[n+]1ccc2c([nH]c3ccccc32)c1C.[Br-] | 8.85
O=C(COC(=O)c1n[nH]c(=O)c2ccccc12)NCc1ccccc1 | 6.79
CC(C)NC(=O)C1CCN(C2CCN(CC3CC=CCC3)CC2)CC1 (centres unmarked) | 5.3
c1cncc(CNc2ccc3c(c2)OCO3)c1 | -0.287
Cc1coc2c(C)c3oc(=O)c(CCC(=O)NCCCn4ccnc4)c(C)c3cc12 | -13.8
O=C(c1ccoc1)N1CCC2(CC1)Oc1ccc(F)cc1C(=O)C21CC(c2ccccc2)=NO1 (centres unmarked) | 9.38
CCOC(=O)N1CCN(c2cc(N3CCN(CC)CC3)c(F)cc2[N+](=O)[O-])CC1C (centres unmarked) | -16
CC(C)CC(=O)Nc1nnc(S(=O)(=O)Nc2ccccc2)s1 | 12.5
Cc1ncsc1CCOC(=O)c1cccc([N+](=O)[O-])c1.Cl | 3.28
CCCC(=O)Nc1c2c(nn1-c1ccc(OC)cc1)CS(=O)(=O)C2 | 4.26
O=C(c1ccc(Cl)cc1)c1c[nH]cc1-c1ccccc1 | 14.2
CCC(Sc1nc2n[nH]c(C)c2c(=N)n1-c1cc(Cl)ccc1C)C(=O)N1CCOCC1 (centres unmarked) | 4.51
Cc1c(Br)ccc(NC(=O)CCN2C(=O)C3C4CCC(C4)C3C2=O)c1C (centres unmarked) | 9.93
Cc1ccc(CNc2nc(C)cs2)cc1 | 8.56
Cc1ccc(S(=O)(=O)N2CCN=C2c2ccccc2)cc1C | 8.69
CC(C)(C)N1C(=O)[C@H]2[C@@H](c3ccc(Br)cc3)N3C(=O)N(c4ccccc4)C(=O)[C@@]3(C)[C@H]2C1=O | 2.45
Cc1ccccc1NC(=O)c1ccc(Cn2cc([N+](=O)[O-])cn2)o1 | 4.9
CC[n+]1c(/C=C/N(C)c2ccccc2)n(-c2ccccc2)c2ccc(-c3nc4ccccc4s3)cc21.[I-] | -29.9
COc1ccc(C(C(=O)NC(C)(C)C)N(Cc2ccc(C)cc2)C(=O)CCC(=O)Nc2cc(C)on2)cc1 (centres unmarked) | -6
CC(C)N(C)CCOC(=O)c1ccc2c(c1)OCCO2.Cl | 2.41
